# This is one part of the list. Cleavage of a single-stranded DNA pool by Rep nickase domains was read by sequencing (3 µM enzyme, 1 h, 37 °C); shown is the middle of each 90-letter strand. Values are log2 of uncut reads against the no-enzyme pool; strong cutting gives strongly negative numbers. There is no active / inactive call. Counts are relative to all reads; where an enzyme cuts many sequences, the uncut ones exceed 0.
# Legend:
# Assay in all cases: uncleaved DNA left, log2 of reads against the no-enzyme library (log2 ratio); higher = less cleavage (more negative = more Rep cleavage of the k-mer); sequences stand for … in CTCGTCCG…ACCGGAGA
# [1] = tested on: T1, Rep nickase domain of Muscovy duck circovirus
# T1 sequence (Rep 1-111, printed without the tag): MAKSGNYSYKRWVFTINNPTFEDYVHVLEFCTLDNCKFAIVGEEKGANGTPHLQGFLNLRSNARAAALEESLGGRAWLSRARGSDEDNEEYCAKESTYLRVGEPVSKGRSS
# Procedure: (§1)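 A pool of 90-nt single-stranded DNAs with seven random bases just before the constant AC of the nick site (name = the seven bases) was cut by 3 µM recombinant His6-SUMO-tagged Rep nickase domain (300 nM DNA, 50 mM HEPES pH 8.0, 50 mM NaCl, 1 mM MnCl2, 1 h, 37 °C, three replicates). Uncut DNA was amplified and sequenced.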
# [2] = tested on: T2, Rep nickase domain of banana bunchy top virus
# T2 sequence (Rep 1-94, printed without the tag): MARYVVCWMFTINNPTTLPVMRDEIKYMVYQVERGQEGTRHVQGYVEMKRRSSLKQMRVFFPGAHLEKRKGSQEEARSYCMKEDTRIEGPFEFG
# Procedure: as §1
# [3] = tested on: T3, Rep nickase domain of cabbage leaf curl virus
# T3 sequence (Rep 1-116, printed without the tag): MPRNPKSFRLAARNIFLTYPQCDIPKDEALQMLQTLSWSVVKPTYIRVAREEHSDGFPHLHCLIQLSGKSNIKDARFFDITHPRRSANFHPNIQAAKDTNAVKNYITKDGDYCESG
# Procedure: as §1
# [4] = tested on: T4, Rep nickase domain of chickpea chlorotic dwarf virus
# T4 sequence (Rep 1-124, printed without the tag): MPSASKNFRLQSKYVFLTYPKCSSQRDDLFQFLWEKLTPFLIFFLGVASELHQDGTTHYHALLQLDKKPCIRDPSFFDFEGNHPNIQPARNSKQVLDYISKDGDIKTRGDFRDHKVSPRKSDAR
# Procedure: as §1
# [5] = tested on: T5, Rep nickase domain of faba bean necrotic yellows virus
# T5 sequence (Rep 1-98, printed without the tag): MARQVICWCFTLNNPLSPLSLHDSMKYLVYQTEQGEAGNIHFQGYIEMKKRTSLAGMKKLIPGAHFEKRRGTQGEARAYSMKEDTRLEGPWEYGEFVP
# Procedure: as §1
# [6] = tested on: T6, Rep nickase domain of maize striate mosaic virus
# T6 sequence (Rep 1-117, printed without the tag): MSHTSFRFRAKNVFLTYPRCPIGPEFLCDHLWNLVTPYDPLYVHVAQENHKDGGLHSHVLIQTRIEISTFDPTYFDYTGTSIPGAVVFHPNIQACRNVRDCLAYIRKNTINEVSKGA
# Procedure: as §1
# [7] = tested on: T7, Rep nickase domain of porcine circovirus 2
# T7 sequence (Rep 2-116, printed without the tag): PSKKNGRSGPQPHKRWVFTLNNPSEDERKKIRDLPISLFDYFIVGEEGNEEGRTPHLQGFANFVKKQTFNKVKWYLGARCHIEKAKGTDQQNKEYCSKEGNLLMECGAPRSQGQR
# Procedure: as §1
# [8] = tested on: T8, Rep nickase domain of tomato golden mosaic virus
# T8 sequence (Rep 1-124, printed without the tag): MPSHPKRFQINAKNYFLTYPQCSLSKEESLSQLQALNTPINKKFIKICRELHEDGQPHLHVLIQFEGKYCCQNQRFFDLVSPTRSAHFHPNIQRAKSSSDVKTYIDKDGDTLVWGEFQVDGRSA
# Procedure: as §1
# [9] = tested on: T9, Rep nickase domain of tomato yellow leaf curl virus
# T9 sequence (Rep 1-136, printed without the tag): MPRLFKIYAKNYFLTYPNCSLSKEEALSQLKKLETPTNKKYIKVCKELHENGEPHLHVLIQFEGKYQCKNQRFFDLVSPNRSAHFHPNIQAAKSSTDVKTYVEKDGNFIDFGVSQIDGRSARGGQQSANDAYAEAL
# Procedure: as §1
# [10] = tested on: T10, Rep nickase domain of wheat dwarf virus
# T10 sequence (Rep 1-137, printed without the tag): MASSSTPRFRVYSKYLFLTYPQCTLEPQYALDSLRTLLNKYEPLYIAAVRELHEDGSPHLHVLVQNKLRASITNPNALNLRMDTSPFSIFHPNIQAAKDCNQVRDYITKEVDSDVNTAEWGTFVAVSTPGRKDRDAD
# Procedure: as §1
Sequence,uncleaved DNA left (log2) [1],uncleaved DNA left (log2) [2],uncleaved DNA left (log2) [3],uncleaved DNA left (log2) [4],uncleaved DNA left (log2) [5],uncleaved DNA left (log2) [6],uncleaved DNA left (log2) [7],uncleaved DNA left (log2) [8],uncleaved DNA left (log2) [9],uncleaved DNA left (log2) [10]
TCCGTGG,-0.0672,0.024,0.249,0.665,-0.0162,0.603,0.0473,0.025,-0.0923,-0.0083
CTGTATG,-0.204,-0.23,-0.704,-0.598,0.037,-1.31,-0.00939,-0.207,-0.0992,-0.137
CTGTGCG,-0.167,-0.271,-0.83,0.359,-0.132,-0.38,-0.0433,-0.268,-0.376,-0.303
CTCCCTT,-0.0339,-0.171,0.0312,-1.64,0.0343,-0.415,-0.104,-0.172,0.106,-0.00726
TAAATGG,-0.0609,-0.0815,-0.201,-0.129,-0.122,-0.18,0.0604,0.0221,-0.111,-0.0751
CTTGACC,-0.0884,-0.155,-0.0544,-1.05,-0.0404,0.273,-0.115,-0.122,-0.117,-0.0403
CCTGTAC,0.0955,0.00576,-0.0349,-0.688,0.168,-0.543,0.0159,0.0143,0.00253,-0.0462
GACATCT,0.0452,0.0253,0.549,-0.405,0.0124,1.46,-0.184,-0.0167,0.0298,0.0843
CCAACTG,-0.0582,-0.0415,0.262,1.1,0.00669,1.46,0.109,-0.0797,-0.127,-0.00117
CATAACG,0.00779,0.0219,-0.796,-0.00571,0.0575,-1.05,0.204,-0.0502,0.0327,-0.0165
TGACCTT,0.191,0.236,0.363,0.192,-0.034,1.12,-0.122,0.0415,0.228,0.267
AGATTCT,-2.5,0.0263,-0.0797,-1.75,0.0606,-0.386,-2.88,0.0122,0.096,-0.143
ACGGTTG,-0.113,-0.151,-0.243,0.229,-0.237,-0.34,-0.006,-0.0275,-0.115,-0.163
CGTTACG,0.054,0.0516,-0.746,-0.338,0.0697,-0.9,0.181,-0.0396,0.0953,0.0533
ATAACGT,-0.117,-0.0511,-0.521,-0.88,-0.0791,-0.777,-0.0477,-0.0793,-0.0403,-0.158

# Reference: the supplement of paper PMC7826260
